Measurements published in the RNAGym collection of RNA variant scans (doi:10.1101/gad.245936.114).
Variants at the background level are over-represented here.

B1: tRNA (parent)
chain: CUCUCGGUAGCCAAGUUGGUUUAAGGCGCAAGACUUUAAUUUAUCACUACGAAAUCUUGAGAUCGGGCGUUCGACUCGCCCCCGGGAGAUUUUUUCCUCGAGCAA

Variants of: B1
Assay: nonsense suppression (GFP-seq) (ratio to wild type); higher = more function; SUP4oc tRNA, yeast GFP reporter sort-seq
In short: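 Yeast carrying genome-integrated SUP4oc tRNA variants from a library with ~3% random mutations were grown in raffinose/galactose medium with 80 mg/L adenine. Each strain also carried a galactose-driven GFP ochre reporter and RFP. Cells were sorted into GFP/RFP bins, and each bin was Illumina-sequenced (phred ≥30). Nonsense suppression (GFPSEQ) is the bin median GFP/RFP, weighted by each variant's estimated cell share per bin, relative to wild-type SUP4oc; variants needed ≥100 reads and ≥30 cells.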

Nonsense suppression, 0.186:
U17A G78U

Nonsense suppression, 1.15:
U17A C29U

Nonsense suppression, 0.758:
U17C U22A

Nonsense suppression, 0.872:
U16G U22A

Nonsense suppression, 0.902:
U17A A24C

Nonsense suppression, 0.27:
U16G U17C C72A

Nonsense suppression, 0.235:
U17C G61A

Nonsense suppression, 0.0323:
U17C A24G

Nonsense suppression, 0.0262:
U17A A24G

Nonsense suppression, 0.219:
U17C G28C A54U

Nonsense suppression, 0.444:
U17C U55C

Nonsense suppression, ≤ 0.026:
U16G C77G
U16G C77U
U16G C82G
U16G G18A A30U G73C G78A C83G
U16G G18A G61U U70A
U16G G19U U63C
U16G G26U U35G
U16G G28C C72A C83U
U16G G28U U35G G59A G85A
U16G G28U U76A
U16G G32C C81U
U16G G32U U55C
U16G G59C C68A
U16G G65U
U16G G66A C75U
U16G G86C
U16G G88U
U16G U17A U70G
U16G U17C G67U
U16G U20A G67C G84U
U16G U20C U35G U76G C79U
U16G U21A A74G C80U
U16G U21A U35G
U16G U21C G78A
U16G U21C G78A G85C
U16G U21C G84A
U16G U22G A74C
U16G U22G C27G C34U U35G
U16G U55A
U16G U55G U76A
U16G U57A
U16G U57A C64U G66U G69A
U16G U71G G78U
U16G U76G G86C
U17A A23C G25C U58G
U17A A23G C68G
U17A A23U C29A
U17A A23U G84A
U17A A24C A31U
U17A A24C U58G G69C
U17A A24G A31U G67C A87C
U17A A24G U35C
U17A A30C G67U G88A
U17A A31C G59U G85U
U17A A33C U76C C79A C80U
U17A A54C U58A
U17A A54G G85U
U17A A74G U76C C77U G78C C79G A89G
U17A A89C
U17A A89U
U17A C27A
U17A C34A U70C
U17A C34U A74U
U17A C75U A89C
U17A C79G
U17A C80A
U17A C80G A89U
U17A C81A
U17A C81U G88C
U17A C83A
U17A G18A U21G A60C C80A
U17A G18C
U17A G18C A31G G61A G65C C68U
U17A G18C A87C
U17A G18U A23G C80A G88U
U17A G18U C29U U35A A87C
U17A G19A
U17A G19C A74G
U17A G19C U58A
U17A G25U A31U G86A
U17A G25U C34U
U17A G26A
U17A G26U G65C A74C
U17A G28A A30U C56A A60C
U17A G28U
U17A G32A
U17A G32U U70G
U17A G59C C80U
U17A G59U
U17A G65A
U17A G66C
U17A G84U
U17A G86A
U17A G86U
U17A U20C G32C G88U
U17A U21A A31U C75U C81G
U17A U21A G73C
U17A U35G G66A G67U
U17A U55A
U17A U57C
U17A U58C C81U
U17A U76G
U17C A23G G28A C81U
U17C A24U A54C
U17C A24U C68G
U17C A24U G32C G59C G65C
U17C A30G G59C U63G U70A G73C
U17C A30G U58G
U17C A30U G66A C77A
U17C A31C C64U
U17C A31U C68G C80A
U17C A54G A62U
U17C A54U U58G
U17C A60C C81U
U17C A62C G84C
U17C A62G G78U
U17C A62G U70C
U17C A87C
U17C A87U
U17C C27A
U17C C27A C68G A87C
U17C C27G U58C G67C
U17C C29A
U17C C29U A33U C79G
U17C C34G C81A
U17C C34U U55A
U17C C64G
U17C C72A
U17C C72G
U17C C75A G88A
U17C C77A
U17C C80U G86A G88A
U17C C82G
U17C G18C G19U
U17C G18U A62C C82A
U17C G19C
U17C G26U
U17C G28A C56G
U17C G28A G59C G61C
U17C G28U C29A C79A G85C
U17C G28U G69A C82A
U17C G59C G66U C68A
U17C G61A U70C
U17C G65C
U17C G66A A89G
U17C G69A
U17C G69A G78U A87U
U17C G73U G88C
U17C G86A A87C
U17C U22G A33U U35G
U17C U22G U57C
U17C U55C U76G
U17C U57C U71G A87U
U17C U70G
U17C U71A
U17C U76G
U17G A23C C27U G67C
U17G A24C C34G
U17G A24G U57A C80A
U17G A24G U70A
U17G A24U C27U C64A U71G A89U

Nonsense suppression, 1.02:
U17A G28A G85A
U17C G28C C75G

Nonsense suppression, 0.348:
U17C U22C A60G

Nonsense suppression, 0.804:
U17C U63G

Nonsense suppression, 0.852:
U16G C79U
